Test results reported in publication PMC9891081 (Cell, 2022).

Molecular target: human Cav1.3-α1 subunit (human, UniProt Q01668-1 1-2161)
Assay: cryo-EM structure

B1: human α2δ-1 subunit (natural protein)
chain: not shown
binding result: binds
